According to the supplement of paper PMC4967469:

Experiments:
Experiment in all cases: Viability of human cancer cell lines after 72 h of drug (GDSC screen)
JNJ-26854165 = compound: c1ccc2c(CCNc3ccc(Nc4ccncc4)cc3)c[nH]c2c1 [JNJ-26854165]; details: top dose 10 µM
Method: (§1)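 Human cancer cell lines in 384-well plates, medium with 10% serum, drug for 72 h over a 256-fold dose range (nine 2-fold or five 4-fold steps up to the top dose). Adherent lines were fixed and stained with the nucleic acid dye Syto60, suspension lines read with resazurin; signal relative to control wells, capped at 0 and 100%. One two-parameter sigmoid per drug and line, fitted in a mixed model over all curves with the slope shared within a line.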

JQ1 = compound: Cc1sc2c(c1C)C(c1ccc(Cl)cc1)=N[C@@H](CC(=O)OC(C)(C)C)c1nnc(C)n1-2 [JQ1]
Method: as §1

OSI-906 = compound: C[C@]1(O)C[C@@H](c2nc(-c3ccc4ccc(-c5ccccc5)nc4c3)c3c(N)nccn32)C1 [OSI-906]; details: top dose 2.56 µM; top dose inferred
Method: as §1

AMG-706 = compound: CC1(C)CNc2cc(NC(=O)c3cccnc3NCc3ccncc3)ccc21 [AMG-706]; details: top dose 2 µM; top dose inferred
Method: as §1

YM155 = compound: COCC[n+]1c2c(n(Cc3cnccn3)c1C)C(=O)c1ccccc1C2=O [YM155]; details: top dose 5.12 µM
Method: as §1

NVP-TAE684 = compound: COc1cc(N2CCC(N3CCN(C)CC3)CC2)ccc1Nc1ncc(Cl)c(Nc2ccccc2S(=O)(=O)C(C)C)n1 [NVP-TAE684]; details: top dose 2 µM
Method: as §1

SB-715992 = compound: Cc1ccc(C(=O)N(CCCN)[C@@H](c2nc3cc(Cl)ccc3c(=O)n2Cc2ccccc2)C(C)C)cc1 [SB-715992]; details: top dose 0.128 µM; top dose inferred
Method: as §1

FTI-277 = compound: COC(=O)[C@H](CCSC)NC(=O)c1ccc(NC[C@@H](N)CS)cc1-c1ccccc1 [FTI-277]; details: top dose 1.024 µM; top dose inferred
Method: as §1

JNK Inhibitor VIII = compound: CCOc1nc(NC(=O)Cc2cc(OC)ccc2OC)cc(N)c1C#N [JNK Inhibitor VIII]; details: top dose 10 µM; top dose inferred
Method: as §1

NSC-207895 = compound: CN1CCN(c2ccc([N+](=O)[O-])c3no[n+]([O-])c23)CC1 [NSC-207895]; details: top dose 20 µM; top dose inferred
Method: as §1

Docetaxel = compound: CC(=O)O[C@@]12CO[C@@H]1C[C@H](O)[C@@]1(C)C(=O)[C@H](O)C3=C(C)[C@@H](OC(=O)[C@H](O)[C@@H](NC(=O)OC(C)(C)C)c4ccccc4)C[C@@](O)([C@@H](OC(=O)c4ccccc4)[C@H]21)C3(C)C [Docetaxel]; details: top dose 0.0125 µM
Method: as §1

CGP-60474 = compound: OCCCNc1cc(-c2ccnc(Nc3cccc(Cl)c3)n2)ccn1 [CGP-60474]; details: top dose 0.256 µM; top dose inferred
Method: as §1

Belinostat = compound: O=C(/C=C/c1cccc(S(=O)(=O)Nc2ccccc2)c1)NO [Belinostat]; details: top dose 20 µM; top dose inferred
Method: as §1

Cyclopamine = compound: CC1=C2C[C@H]3[C@@H](CC=C4C[C@@H](O)CC[C@@]43C)[C@@H]2CC[C@]12O[C@@H]1C[C@H](C)CN[C@H]1[C@H]2C [Cyclopamine]; details: top dose 16 µM; top dose inferred
Method: as §1

PHA-665752 = compound: Cc1[nH]c(/C=C2\C(=O)Nc3ccc(S(=O)(=O)Cc4c(Cl)cccc4Cl)cc32)c(C)c1C(=O)N1CCC[C@@H]1CN1CCCC1 [PHA-665752]; details: top dose 2 µM
Method: as §1

[1] = top dose 1 µM, screen: GDSC drug entry 1218, top dose inferred
[2] = top dose 2.56 µM, screen: GDSC drug entry 163

Row | Cell Line | AUC (JNJ-26854165) | IC50 (JNJ-26854165) [nM] | AUC (JQ1; [1]) | IC50 (JQ1; [1]) [nM] | AUC (JQ1; [2]) | IC50 (JQ1; [2]) [nM] | AUC (OSI-906) | IC50 (OSI-906) [nM] | AUC (AMG-706) | IC50 (AMG-706) [nM] | AUC (YM155) | IC50 (YM155) [nM] | AUC (NVP-TAE684) | IC50 (NVP-TAE684) [nM] | AUC (SB-715992) | IC50 (SB-715992) [nM] | AUC (FTI-277) | IC50 (FTI-277) [nM] | AUC (JNK Inhibitor VIII) | IC50 (JNK Inhibitor VIII) [nM] | AUC (NSC-207895) | IC50 (NSC-207895) [nM] | AUC (Docetaxel) | IC50 (Docetaxel) [nM] | AUC (CGP-60474) | IC50 (CGP-60474) [nM] | AUC (Belinostat) | IC50 (Belinostat) [nM] | AUC (Cyclopamine) | IC50 (Cyclopamine) [nM] | AUC (PHA-665752) | IC50 (PHA-665752) [nM]
1 | COR-L95 (small cell lung carcinoma, adherent) | 0.884 | > 10000 | 0.983 | > 1000 | 0.983 | > 2560 | 0.906 | > 2560 | 0.975 | > 2000 | 0.286 | 71.5 | 0.833 | 1590 | 0.932 | > 128 | 0.987 | > 1020 | 0.975 | > 10000 | 0.862 | > 20000 | 0.924 | > 12.5 | 0.815 | 170 | 0.416 | 708 | 0.972 | > 16000 |  | 
2 | NCI-H187 (small cell lung carcinoma, suspension) | 0.948 | > 10000 | 0.985 | > 1000 | 0.938 | > 2560 | 0.934 | > 2560 | 0.987 | > 2000 | 0.037 | < 20 | 0.88 | > 2000 | 0.96 | > 128 | 0.988 | > 1020 | 0.985 | > 10000 | 0.795 | 10200 | 0.962 | > 12.5 | 0.834 | 186 | 0.341 | 435 | 0.988 | > 16000 |  | 
3 | NCI-H322M (lung adenocarcinoma, suspension) | 0.987 | > 10000 | 0.975 | > 1000 | 0.96 | > 2560 | 0.969 | > 2560 | 0.987 | > 2000 | 0.132 | < 20 |  |  | 0.982 | > 128 | 0.982 | > 1020 | 0.986 | > 10000 | 0.963 | > 20000 | 0.984 | > 12.5 | 0.889 | > 256 | 0.548 | 1750 |  |  | 0.967 | > 2000
4 | EHEB (lymphoid neoplasm, suspension) | 0.776 | 5970 | 0.97 | > 1000 | 0.811 | 2220 | 0.978 | > 2560 | 0.973 | > 2000 |  |  |  |  |  |  | 0.968 | > 1020 | 0.978 | > 10000 |  |  | 0.93 | > 12.5 | 0.734 | 103 |  |  |  |  | 0.972 | > 2000

IC50 is the fitted dose that halves viability relative to control wells, and lower means more sensitive; a limit (>, <) means that the fit lies beyond the doses tested. For AUC the same curve is integrated over the 256-fold range of doses and scaled to a fraction; it is 1 without any effect and falls as sensitivity rises. For part of these data: Where the top dose is marked as inferred, it comes from the curve model; the source does not state it. For part of these data: An entry number marks a drug with two screens in the source, which often give different values.
